In PubChem BioAssay AID1508623 (National Center for Advancing Translational Sciences (NCATS), 2021):
Screen size: about 48,000 compounds; about 450 (0.94%) were called active. Roughly 19% stayed inconclusive and do not appear here. The call rests on the fitted dose curve; in most records, active means well fitted inhibition curve with a large enough effect; inconclusive means small, poorly fitted or top-dose-only effect; inactive means no such curve, though single readings can be large or run the other way. The list shows a part of the results.

Assay: Primary qHTS for Identification of Small Molecule Inhibitors of Huntingtin Promoter Activity; further: nearly all actives have a fitted effect of over 50% in size
Settings: HEK293 HTT promoter firefly luciferase reporter (activity 0% = vehicle and -100% = no light), 24 h; series mostly up to 57.5 µM; activity change, negative = inhibition: at the top concentration
Outline: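 Quantitative HTS used concentration series of up to 57.5 uM final on HEK293 luciferase reporter cells, 24 h at 37 degrees C. Readout was Dual-Glo firefly luminescence.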

Activity change, negative = inhibition, inactive:
CCOc1ccc(NC(=O)CCS(=O)(=O)c2ccc3c(c2)n(C)c(=O)c(=O)n3C)cc1 -18.4%
Cc1ccc2cccc(NC(=O)C(C)(C)Oc3ccc(Br)cc3)c2n1 -7.75%
CCOc1ccc(NC(=O)CSc2nc(-c3ccc(F)cc3)cc(C(F)(F)F)c2C#N)cc1 -1.93%
CCOC(=O)c1ccccc1NC(=O)Cn1c2ncccc2c(=O)n1-c1ccccc1 -7.48%
Cc1ccc(C)c(N2CCN(Cc3nnc(-c4ccccc4)o3)CC2)c1 -24.5%
COc1cccc(C(=O)c2cn(CC(=O)Nc3cccc(C)c3C)c3nc(C)ccc3c2=O)c1 0.276%
CCOCCCn1c(SCC(=O)Nc2ccc(OC)cc2OC)nc2ccccc2c1=O -17.5%
COc1ccc(-c2cn3c(n2)sc2cc(C(=O)Nc4cc(Cl)ccc4C)ccc23)cc1 36.8%
CCc1ccc(C(=O)Nc2ccc3nn(-c4ccc(C)c(Cl)c4)nc3c2)cc1 23.4%
Cc1cccc(C)c1NC(=O)Cn1nc(C)c2sc3ccccc3c2c1=O -22.1%
Cc1ccc(CN2CCc3nc(SCC(=O)Nc4cccc(C)c4C)[nH]c(=O)c3C2)cc1 -16.5%
COc1ccc(N2CC(NC(=O)c3ccc(S(=O)(=O)N4CCCCC4)cc3)CC2=O)cc1OC (stereo unspecified) -32.8%
COc1cc(OC)cc(-c2nc3nc(C)c(CCC(=O)Nc4cc(F)ccc4F)c(C)n3n2)c1 -16.2%
CCSc1ncc(Cl)c(C(=O)Nc2c(C(=O)c3ccccc3)oc3ccccc23)n1 -12.7%
Cc1ccccc1CN1CCN(CC(=O)NCc2ccccc2Cl)C1=O -6.37%
COc1ccc2oc(-c3ccc(C)c(NC(=O)Cc4ccc(Cl)cc4)c3)nc2c1 -3.19%
Cc1c(NC(=O)c2cc(=O)c3cc(Cl)ccc3o2)c(=O)n(-c2ccccc2)n1C 1.91% [at 11.5 µM]
Fc1ccc2c(c1)NC(c1ccncc1)=NC(c1cccs1)=N2 -0.401%
CCC(=O)Nc1nnc(S(=O)(=O)N2CCc3ccccc32)s1 -18.8%
CCOC(=O)c1ccc(NC(=O)C2CCN(S(=O)(=O)c3ccc(C)cc3)CC2)cc1 -22.9%
CC(=O)c1nn(-c2ccc(OC(F)(F)F)cc2)nc1Nc1ccc(C)cc1 -7.18%
COc1ccccc1CNC(=O)CS(=O)Cc1nc(-c2ccc(OC)c(OC)c2)oc1C (stereo unspecified) -3.86%
CCC1CN(C(=O)N2CCC(C(=O)O)CC2)c2cc(C)ccc2O1 (stereo unspecified) -12.5%
Cc1ccc(CCNC(=O)c2ccc(CSCc3ccccc3C)o2)cc1 -1.01%
Cc1ccc2nc(-c3ccc(NC(=O)COc4ccc(Cl)c(C)c4)cc3)sc2c1 58.5%
COc1ccc(Nc2cc(C)c3cc(NC(=O)Cc4c(F)cccc4Cl)ccc3n2)cc1 -26.6%
COc1ccccc1CNC(=O)c1sc2nc3n(c(=O)c2c1C)CCC3 12.8%
CCOc1ccc(CNS(=O)(=O)c2ccc(-c3cc(C(F)(F)F)on3)s2)cc1 -11.5%
CCCNc1ccc(-c2nc(-c3ccncc3)no2)cc1[N+](=O)[O-] -6.94%
CCOc1ccc(-c2cc(C(=O)NCc3ccc(C)cc3)c3ccccc3n2)cc1 -8.39%
CCOc1ccc(Cl)cc1C1CC(=O)Nc2cc(OC)c(OC)c(OC)c21 (stereo unspecified) 0.243%
NC(=O)C(c1ccccc1)(c1ccccc1)[C@@H]1CCN(CCc2ccc3c(c2)CCO3)C1 -1.14%
CCOC(=O)C1CCCN(C(=O)Cn2ncc3c([nH]c4ccc(C)cc43)c2=O)C1 (stereo unspecified) -3.3%
CCCC(CCC)C(=O)Nc1cccc(-c2cn3cccnc3n2)c1 -5.4%
COC(=O)c1c(NC(=O)CCCOc2ccccc2C)sc2c1CCC(C)C2 (stereo unspecified) 1.44%
COc1ccccc1CNC(=O)CN1C(=O)CCc2cc(S(=O)(=O)N3CCOCC3)ccc21 -14.4%
CCc1ccc(NC(=O)CCCc2nc(-c3ccco3)no2)cc1 -13%
COc1cc2[nH]c(=O)n(CCCC(=O)NCc3ccccc3)c(=O)c2cc1OC -6.38%
CC1CN(C(=O)N2CCC(C(=O)NCc3ccco3)CC2)c2cc(Cl)ccc2O1 (stereo unspecified) -15.5%
COc1ccc(NC(=O)c2cc(-c3ccccc3O)no2)cc1 4.16%
CCOC(=O)c1cccc(N)c1 1.09%
COc1ccc(-c2noc(CSc3nnc(-c4ccc(Cl)cc4)n3C)n2)cc1OC -13%
COc1ccc(CCNC(=O)Cn2cc(S(=O)(=O)Cc3cccc(Cl)c3)c3ccccc32)cc1OC -24.2%
CCc1cnc2c(c1SCC(=O)Nc1cc(Cl)ccc1OC)c(=O)n(C)c(=O)n2C -16.5%
CN1CCN(C(=O)Nc2cccc(Cl)c2)c2cccnc21 9.43%
Cc1ccc(CNC(=O)C2CCCN(S(=O)(=O)c3ccc4c(ccn4C)c3)C2)cc1 (stereo unspecified) 15.7%
CCCCN(CCCC)CCNC(=O)c1cc(=O)[nH]c2ccc(S(=O)(=O)N3CCCCCC3)cc12 -21.9%
CC(C)c1ccc(NC(=O)CSc2nc(=O)n(Cc3cccnc3)c3c2CCC3)cc1 -13.5%
Cc1cc(C)c(NC(=O)CSc2ncc(S(=O)(=O)c3ccc(C(C)(C)C)cc3)c(=O)[nH]2)c(C)c1 -11.9%
O=C(NC1CCCC1)c1ccc2c(c1)N(Cc1ccccc1Cl)C(=O)c1ccccc1S2 -4.02%
CCc1ccccc1Nc1nn2c(=O)c3ccc(C(=O)NC4CCCCC4)cc3nc2s1 1.66%
Cc1ccn2c(=O)c(C(=O)NCc3ccccc3Cl)c(O)nc2c1 -4.27%
COc1ccccc1OCC(O)CN1CCN(CC(=O)Nc2c(C)cccc2C)CC1 (stereo unspecified)
COC(=O)C(CCSC)NC(=O)c1cc2c(n(-c3ccc(OC)cc3)c1=O)CC(C)(C)CC2=O (stereo unspecified) -10.5%
COc1cccc(C(=O)Nc2ccc(NC(=O)c3ccc(C(C)(C)C)cc3)cc2)c1 -13.8%
Cc1ccc(N2CC(NC(=O)C3CCCCC3)CC2=O)cc1C (stereo unspecified) -25%
COc1ccc(-c2nc3scc(CCNC(=O)Cc4ccc(F)cc4)n3n2)cc1 -21.9%
CCC(C)NC(=O)c1ccc2nc(Cc3ccccc3)oc2c1 (stereo unspecified) 3.8%
CCN(c1ccccc1)S(=O)(=O)c1nnc(NC(=O)c2ccco2)s1 -16.3%
Cc1ccccc1-c1nnc(SCC(=O)N2CCCCC2)o1 48.9%
Cc1ccc(-n2ncc(C(=O)Nc3c(Cl)cccc3Cl)c2C2CCNCC2)cc1 -6.72%
Cc1csc2nc(COc3ccccc3NC(=O)c3ccccc3Cl)cc(=O)n12 -7.83%
Cn1c(=O)cc(OCC(=O)NCc2ccc(F)cc2Cl)c2ccccc21 -18.9%
COc1ccc(CCNC(=O)CCCn2nc(C)c3sc4ccccc4c3c2=O)cc1OC 0.307%
Cc1ccc2nc(-c3ccc(Cl)c(NC(=O)c4ccc(Br)o4)c3)oc2c1 9.43%
O=C(COCc1cc(-c2ccc3c(c2)OCO3)on1)NCc1ccc(F)cc1 -18.7%
Cc1ccc(C)c(N2CCN(S(=O)(=O)c3cc(C(=O)Nc4cc(Cl)cc(Cl)c4)ccc3F)CC2)c1 -16%
Cc1ccc(Cl)cc1NC(=O)c1cc(S(=O)(=O)N2CCCCCC2)cn1C -29.4%
COc1cc(C2CC(=O)Nc3c2c(C)nn3-c2nncc(-c3ccccc3)n2)cc(OC)c1OC (stereo unspecified) -10.1%
O=C(Nc1ccccc1Cl)c1cc2c(-c3ccccc3)nn(-c3ccccc3)c2s1 9.04%
CCN(c1ccccc1)c1nnc(NC(=O)Nc2ccc(C)cc2)s1 1.97%
O=C(OCc1cc(=O)n2nc(-c3cccs3)sc2n1)c1ccc(F)cc1 -0.158%
Cc1ccc2nc3c(cc(C#N)c(=O)n3-c3nnc(SCc4ccccc4Cl)s3)c(=O)n2c1 -5.93%
COc1ccc(/C=C/c2nc(C#N)c(N3CCC(C)CC3)o2)cc1OC -21.4%
COc1ccc(Nc2ncc3c(n2)CCN(Cc2ccc(Br)s2)C3)c(OC)c1 17.4%
CSc1ccc(CCNC(=O)c2ccc(-n3c(C)cc4c3CCCC4)cc2)cc1 -12.6%
CC(=O)N1N=C(c2ccc(C)cc2)CC1c1cn(-c2ccccc2)nc1-c1cccs1 (stereo unspecified) -9.67%
CCN(CC)S(=O)(=O)c1ccc2c(c1)c(=O)c(C(=O)N1CCN(c3cccc(Cl)c3)CC1)cn2C -4.64%
Cn1c(=O)oc2cc(S(=O)(=O)NC(Cc3ccccc3)C(=O)NCc3ccccc3Cl)ccc21 (stereo unspecified) -4.15%
CCOc1ccccc1CNC(=O)C1CCN(c2nc3ccccc3nc2C(F)(F)F)CC1 -12.8%
COc1ccc(-c2n[nH]c3c2cnc2cc(OC)c(OC)cc23)cc1 7.59%
Cc1ccc(CSC2=Nc3ccccc3C3=NC(CC(=O)NCc4ccc5c(c4)OCO5)C(=O)N23)cc1 (stereo unspecified) -0.433%
COc1cc(OC)c(NC(=O)c2ccc3c(c2)N(Cc2ccc(C)cc2)CCS3)cc1Cl -13.6%
Cc1cccc(C2N=C(N)Nc3nc4ccccc4n32)c1 (stereo unspecified) -20.1%
COc1ccc(CCCc2nnc(SCC(=O)Nc3ccc(C)cc3)o2)cc1C -17.6%
Cc1ccc(-n2ncc(C(=O)NC3CCN(Cc4ccccc4)CC3)c2C2CCN(C(=O)OC(C)(C)C)CC2)cc1C -21.6%
CCCS(=O)(=O)Nc1cc(-c2cn3ccc(C)cc3n2)ccc1C 49.4%
CCOc1ccccc1NC(=O)Cn1c(=O)n(Cc2cccs2)c(=O)c2cccnc21 -10.1%
Fc1ccc(-c2nn(-c3ccc(Cl)cc3)c3c2cnc2ccc(F)cc23)cc1 1.29%
COc1ccc(-n2c(=O)c3ccccc3n(Cc3ccccc3Cl)c2=O)cc1 -13.4%
CC(Sc1nc(=O)cc(N)n1CCc1ccccc1)C(=O)Nc1cccc(Cl)c1 (stereo unspecified) 21.1%
COc1ccc(C(=O)Nc2nc3n(n2)C(c2ccc(Cl)cc2)C=C(c2ccccc2)N3)cc1OC (stereo unspecified) -8.03%
Cc1ccc(C)c(CN2C(=O)c3ccccc3S(=O)c3ccc(C(=O)N4CCOCC4)cc32)c1 (stereo unspecified) -23.9%
Cc1ccc(S(=O)(=O)c2nnn3c2nc(N2CCOCC2)c2sccc23)cc1C -8.94%
COc1ccccc1N1CCN(S(=O)(=O)c2c(C)sc3ncn(CC(=O)Nc4ccc(C)cc4Br)c(=O)c23)CC1 -11%
Cc1ccc(CNC(=O)C2CCCN(c3ncnc4onc(-c5ccc(F)cc5)c34)C2)cc1 (stereo unspecified) -12.5%
